{"source": "the supplement of paper PMC8728848", "test_in_all_cases": "glycan array binding signal (z-score within array); higher = stronger binding", "details_in_all_cases": "glycan notation: IUPAC condensed, linker removed", "key": {"[1]": {"target": "Fuc(a1-3)[GalNAc(b1-4)]GlcNAc", "method_in_brief": "(§1)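 The binding signal is a Z-score computed within each array and averaged over linkers. Arrays of the same protein sequence at different concentrations or buffers were also averaged together. Data originate from 3228 arrays in the Consortium for Functional Glycomics database, kept only where the protein sequence was available.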"}, "[2]": {"target": "Fuc(a1-4)GlcNAc", "method_in_brief": "as §1"}, "[3]": {"target": "Fuc(b1-3)GlcNAc", "method_in_brief": "as §1"}, "[4]": {"target": "Gal(a1-2)Gal", "method_in_brief": "as §1"}, "[5]": {"target": "Gal(a1-3)Gal", "method_in_brief": "as §1"}, "[6]": {"target": "Gal(a1-3)Gal(b1-3)GlcNAc", "method_in_brief": "as §1"}, "[7]": {"target": "Gal(a1-3)Gal(b1-4)Glc", "method_in_brief": "as §1"}, "[8]": {"target": "Gal(a1-3)Gal(b1-4)GlcNAc", "method_in_brief": "as §1"}, "[9]": {"target": "Gal(a1-3)Gal(b1-4)[Fuc(a1-3)]GlcNAc", "method_in_brief": "as §1"}, "[10]": {"target": "Gal(a1-3)GalNAc", "method_in_brief": "as §1"}, "[11]": {"target": "Gal(a1-3)[Gal(a1-4)]Gal(b1-4)GlcNAc", "method_in_brief": "as §1"}, "[12]": {"target": "Gal(a1-4)Gal(b1-4)Glc", "method_in_brief": "as §1"}, "[13]": {"target": "Gal(a1-4)Gal(b1-4)GlcNAc", "method_in_brief": "as §1"}, "[14]": {"target": "Gal(a1-4)GlcNAc", "method_in_brief": "as §1"}, "[15]": {"target": "Gal(a1-6)Glc", "method_in_brief": "as §1"}, "[16]": {"target": "Gal(b1-2)Gal", "method_in_brief": "as §1"}, "[17]": {"target": "Gal(b1-3)Gal", "method_in_brief": "as §1"}, "[18]": {"target": "Gal(b1-3)Gal(b1-4)GlcNAc", "method_in_brief": "as §1"}, "[19]": {"target": "Gal(b1-3)GalNAc", "method_in_brief": "as §1"}, "[20]": {"target": "Gal(b1-3)GalNAc(b1-3)Gal(a1-4)Gal(b1-4)Glc", "method_in_brief": "as §1"}, "[21]": {"target": "Gal(b1-3)GalNAc(b1-4)Gal(b1-4)Glc", "method_in_brief": "as §1"}, "[22]": {"target": "Gal(b1-3)GalNAc(b1-4)[Neu5Ac(a2-3)]Gal(b1-4)Glc", "method_in_brief": "as §1"}, "[23]": {"target": "Gal(b1-3)GlcNAc", "method_in_brief": "as §1"}, "[24]": {"target": "Gal(b1-3)GlcNAc(b1-2)Man(a1-3)[Gal(b1-3)GlcNAc(b1-2)Man(a1-6)]Man(b1-4)GlcNAc(b1-4)GlcNAc", "method_in_brief": "as §1"}, "[25]": {"target": "Gal(b1-3)GlcNAc(b1-3)Gal(b1-3)GlcNAc", "method_in_brief": "as §1"}, "[26]": {"target": "Gal(b1-3)GlcNAc(b1-3)Gal(b1-4)Glc", "method_in_brief": "as §1"}, "[27]": {"target": "Gal(b1-3)GlcNAc(b1-3)Gal(b1-4)GlcNAc", "method_in_brief": "as §1"}, "[28]": {"target": "Gal(b1-3)[Fuc(a1-4)]GlcNAc", "method_in_brief": "as §1"}, "[29]": {"target": "Gal(b1-3)[Fuc(a1-4)]GlcNAc(b1-3)Gal(b1-3)[Fuc(a1-4)]GlcNAc", "method_in_brief": "as §1"}, "[30]": {"target": "Gal(b1-3)[Fuc(a1-4)]GlcNAc(b1-3)Gal(b1-4)GlcNAc", "method_in_brief": "as §1"}, "[31]": {"target": "Gal(b1-3)[Fuc(a1-4)]GlcNAc(b1-3)Gal(b1-4)[Fuc(a1-3)]GlcNAc", "method_in_brief": "as §1"}, "[32]": {"target": "Gal(b1-3)[GlcNAc(b1-6)]GalNAc", "method_in_brief": "as §1"}, "[33]": {"target": "Gal(b1-3)[Neu5Ac(a2-6)]GalNAc", "method_in_brief": "as §1"}, "[34]": {"target": "Gal(b1-3)[Neu5Ac(a2-6)]GlcNAc(b1-6)Gal(b1-4)Glc", "method_in_brief": "as §1"}, "[35]": {"target": "Gal(b1-3)[Neu5Ac(b2-6)]GalNAc", "method_in_brief": "as §1"}, "[36]": {"target": "Gal(b1-4)GalNAc(a1-3)[Fuc(a1-2)]Gal(b1-4)GlcNAc", "method_in_brief": "as §1"}, "[37]": {"target": "Gal(b1-4)GalNAc(b1-3)[Fuc(a1-2)]Gal(b1-4)GlcNAc", "method_in_brief": "as §1"}, "[38]": {"target": "Gal(b1-4)Glc", "method_in_brief": "as §1"}, "[39]": {"target": "Gal(b1-4)Glc6S", "method_in_brief": "as §1"}, "[40]": {"target": "Gal(b1-4)GlcNAc", "method_in_brief": "as §1"}, "[41]": {"target": "Gal(b1-4)GlcNAc(a1-6)Gal(b1-4)GlcNAc", "method_in_brief": "as §1"}, "[42]": {"target": "Gal(b1-4)GlcNAc(b1-2)Man(a1-3)[Gal(b1-4)GlcNAc(b1-2)Man(a1-6)]Man(b1-4)GlcNAc(b1-4)GlcNAc", "method_in_brief": "as §1"}, "[43]": {"target": "Gal(b1-4)GlcNAc(b1-3)Gal(b1-3)GlcNAc", "method_in_brief": "as §1"}, "[44]": {"target": "Gal(b1-4)GlcNAc(b1-3)Gal(b1-4)Glc", "method_in_brief": "as §1"}, "[45]": {"target": "Gal(b1-4)GlcNAc(b1-3)Gal(b1-4)GlcNAc", "method_in_brief": "as §1"}}, "note": "The list shows a part of the results."}
{"binder": "TbCVNHOb (Tuber borchii) (protein) MSFYASSEDVRTIEEGGRTWLVGRARRADGSWQDIKLDLDNIIGNRDGHLTWGEQNFTQSASDIRFNFEGGSNVPVLRAKLRNAAGGEQESDLNLGERLTNNNGDLVFN", "values": [{"measurement": "glycan array binding signal (z-score)", "setting": "[1]", "result": -0.267}, {"measurement": "glycan array binding signal (z-score)", "setting": "[2]", "result": -0.278}, {"measurement": "glycan array binding signal (z-score)", "setting": "[3]", "result": -0.129}, {"measurement": "glycan array binding signal (z-score)", "setting": "[4]", "result": -0.036}, {"measurement": "glycan array binding signal (z-score)", "setting": "[5]", "result": 0.126}, {"measurement": "glycan array binding signal (z-score)", "setting": "[6]", "result": -0.047}, {"measurement": "glycan array binding signal (z-score)", "setting": "[7]", "result": 0.765}, {"measurement": "glycan array binding signal (z-score)", "setting": "[8]", "result": -0.054}, {"measurement": "glycan array binding signal (z-score)", "setting": "[9]", "result": -0.039}, {"measurement": "glycan array binding signal (z-score)", "setting": "[10]", "result": -0.127}, {"measurement": "glycan array binding signal (z-score)", "setting": "[11]", "result": -0.074}, {"measurement": "glycan array binding signal (z-score)", "setting": "[12]", "result": 0.23}, {"measurement": "glycan array binding signal (z-score)", "setting": "[13]", "result": -0.047}, {"measurement": "glycan array binding signal (z-score)", "setting": "[14]", "result": 0.154}, {"measurement": "glycan array binding signal (z-score)", "setting": "[15]", "result": -0.31}, {"measurement": "glycan array binding signal (z-score)", "setting": "[16]", "result": -0.093}, {"measurement": "glycan array binding signal (z-score)", "setting": "[17]", "result": -0.078}, {"measurement": "glycan array binding signal (z-score)", "setting": "[18]", "result": -0.136}, {"measurement": "glycan array binding signal (z-score)", "setting": "[19]", "result": -0.117}, {"measurement": "glycan array binding signal (z-score)", "setting": "[20]", "result": -0.287}, {"measurement": "glycan array binding signal (z-score)", "setting": "[21]", "result": -0.23}, {"measurement": "glycan array binding signal (z-score)", "setting": "[22]", "result": -0.245}, {"measurement": "glycan array binding signal (z-score)", "setting": "[23]", "result": -0.016}, {"measurement": "glycan array binding signal (z-score)", "setting": "[24]", "result": -0.148}, {"measurement": "glycan array binding signal (z-score)", "setting": "[25]", "result": -0.152}, {"measurement": "glycan array binding signal (z-score)", "setting": "[26]", "result": 5.86}, {"measurement": "glycan array binding signal (z-score)", "setting": "[27]", "result": -0.19}, {"measurement": "glycan array binding signal (z-score)", "setting": "[28]", "result": -0.119}, {"measurement": "glycan array binding signal (z-score)", "setting": "[29]", "result": -0.04}, {"measurement": "glycan array binding signal (z-score)", "setting": "[30]", "result": -0.225}, {"measurement": "glycan array binding signal (z-score)", "setting": "[31]", "result": -0.198}, {"measurement": "glycan array binding signal (z-score)", "setting": "[32]", "result": -0.231}, {"measurement": "glycan array binding signal (z-score)", "setting": "[33]", "result": -0.29}, {"measurement": "glycan array binding signal (z-score)", "setting": "[34]", "result": 1.4}, {"measurement": "glycan array binding signal (z-score)", "setting": "[35]", "result": 0.035}, {"measurement": "glycan array binding signal (z-score)", "setting": "[36]", "result": -0.159}, {"measurement": "glycan array binding signal (z-score)", "setting": "[37]", "result": -0.093}, {"measurement": "glycan array binding signal (z-score)", "setting": "[38]", "result": -0.296}, {"measurement": "glycan array binding signal (z-score)", "setting": "[39]", "result": -0.217}, {"measurement": "glycan array binding signal (z-score)", "setting": "[40]", "result": -0.072}, {"measurement": "glycan array binding signal (z-score)", "setting": "[41]", "result": -0.098}, {"measurement": "glycan array binding signal (z-score)", "setting": "[42]", "result": -0.139}, {"measurement": "glycan array binding signal (z-score)", "setting": "[43]", "result": -0.167}, {"measurement": "glycan array binding signal (z-score)", "setting": "[44]", "result": 2.32}, {"measurement": "glycan array binding signal (z-score)", "setting": "[45]", "result": -0.064}]}
